From PubChem BioAssay AID624417 (National Center for Advancing Translational Sciences (NCATS), 2012)
About 6,400 (1.6%) of roughly 410,000 compounds were called active. The inconclusive results got no clear call from the source; some entries with a clear call stand among them for comparison. The call rests on the fitted dose curve; in most records, active means well fitted inhibition curve with a large enough effect; inconclusive means small, poorly fitted or top-dose-only effect; inactive means no such curve, though single readings can be large or run the other way. No potency is given beside an inconclusive call; the fits are too rough.

Biological target: Glucagon-like peptide 1 receptor (Homo sapiens) (UniProt P43220)
Assay: qHTS of GLP-1 Receptor Inverse Agonists (Inhibition Mode); further: nearly all actives have a fitted effect of over 55% in size
Settings: HEK293 GLP-1R CRE-luciferase, luminescence, 24 h, GLP-1R form is constitutively active; activity change, negative = inhibition: at 38.3 µM (top of the series) unless noted
Summary of the method: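 Using stably transfected HEK293 (constitutively active GLP-1R, cAMP-luciferase reporter), compounds were incubated 24 hr and luciferase measured by luminescence.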
On the % scale 0 is the no-effect control and ±100 the full control effect; potency means the concentration at half of the fitted maximal effect; tags describe the fitted curve by direction and shape.

UniProt P43220, sequence (P43220 whole entry, looked up): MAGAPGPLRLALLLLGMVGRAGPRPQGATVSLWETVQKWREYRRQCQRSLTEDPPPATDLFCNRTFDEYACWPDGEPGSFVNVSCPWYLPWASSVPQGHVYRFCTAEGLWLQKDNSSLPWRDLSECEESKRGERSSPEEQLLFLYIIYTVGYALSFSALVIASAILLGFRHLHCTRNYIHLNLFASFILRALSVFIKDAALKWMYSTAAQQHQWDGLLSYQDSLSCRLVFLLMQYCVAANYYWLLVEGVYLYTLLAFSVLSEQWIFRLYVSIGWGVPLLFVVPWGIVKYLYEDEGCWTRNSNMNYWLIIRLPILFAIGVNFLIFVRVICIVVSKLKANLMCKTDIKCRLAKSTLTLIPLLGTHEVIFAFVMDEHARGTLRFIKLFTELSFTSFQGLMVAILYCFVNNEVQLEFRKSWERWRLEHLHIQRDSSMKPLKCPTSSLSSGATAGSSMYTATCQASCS

Compound | Potency | activity change, negative = inhibition
CCC(C)c1ccc(NC(=S)NCCn2cc(Cl)cn2)cc1 (stereo not drawn) | inconclusive [inhibitor, single point] | –
Cc1cccc(C)c1C(O)c1ncc(-c2ccc(Cl)cc2)[nH]1 (stereo not drawn) | inconclusive [inhibitor, partial curve, poor fit] | –
CCN(CC)S(=O)(=O)c1ccc(C)c(NC(=O)CNc2cccc(S(=O)(=O)N3CCCC3)c2)c1 | inconclusive [inhibitor, single point] | –
CC(=O)Nc1cccc(-c2ccnc3c2CC(C(=O)Nc2ccc(C(C)C)cc2)O3)c1 (stereo not drawn) | inconclusive [inhibitor, single point] | –
CC(=O)Nc1sc2c(c1CN1CCN(c3ccc(F)cc3)CC1)CCCC2 | active: 7.08 µM | –
CC(=O)Nc1ccc(S(=O)(=O)N[C@H](C(=O)O)C(C)C)cc1 | – | inactive: 3.05%
Cc1cc(C)c(NC(=O)CN(C)C(C)C(=O)N2CCc3ccccc32)c(C)c1 (stereo not drawn) | inconclusive [inhibitor, partial curve, poor fit] | –
COc1ccc(NC(=O)C2=CC(c3ccc(C)cc3)=NS(=O)(=O)N2C)cc1 | inconclusive [inhibitor, single point] | –
O=C(CC(c1ccccc1)c1cc(Br)ccc1O)NCc1ccco1 (stereo not drawn) | active: 11.2 µM | –
CC(C)Cc1cc(CN2CCCC(CO)(Cc3cccc(Cl)c3)C2)[nH]n1 (stereo not drawn) | inconclusive [inhibitor, single point] | –
Cc1ccc(CN2CCc3c(OCc4ccc(F)cc4)cccc3C2=O)cc1 | active: 4.47 µM | –
Cc1cccc(C)c1C(OCCN(C)C)C1CCCCC1 (stereo not drawn) | inconclusive [inhibitor, single point] | –
CN(C)S(=O)(=O)Nc1cc(Cl)cc(Cl)c1 | inconclusive [inhibitor, single point] | –
O=C(COC(=O)c1c2c(nc3ccccc13)/C(=C\c1ccco1)CC2)NC1CCCC1 | inconclusive [inhibitor, partial curve, poor fit] | –
O=C(Nc1c(Cl)cc(Cl)cc1-c1nc2ccccc2s1)c1ccc(Br)o1 | inconclusive [inhibitor, single point] | –
Cn1ccsc1=NC(=O)c1ccc(S(C)(=O)=O)c([N+](=O)[O-])c1 | inconclusive [inhibitor, single point] | –
C(#CCN1CCC(Cc2ccccc2)CC1)COCCOCc1ccccc1 | inconclusive [inhibitor, single point] | –
CCCCc1c(-c2ccc(OC)cc2)ncn1CCc1ccccc1OC | inconclusive [inhibitor, single point] | –
